Experimental findings from the supplement of paper PMC9446081 are described below.

Hit rate of the full screen: of about 39,000 compounds, about 220 (0.56%) showed activity. The list shows a part of the results.
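Further: static incubation at 37 °C against the wild-type strain, values averaged over two biological replicates.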

This experiment has as its system Escherichia coli K-12 BW25113. Kind of experiment: relative growth (OD600 normalised to plate interquartile mean) (fraction); higher = less growth inhibition, active = 0.2 or less. The conditions noted are these: 50 µM; LB; incubation time: overnight (16-24 h).
Take `C[C@H](CO)N1C[C@H](C)[C@H](CN(C)Cc2ccc3c(c2)OCO3)Oc2ccc(NC(=O)c3ccncc3)cc2CC1=O`: the relative growth was inactive: 0.985.

Turning to `COc1ccccc1S(=O)(=O)N[C@H]1C=C[C@@H](CC(=O)N2CCOCC2)O[C@H]1CO`, the relative growth was inactive: 0.989.

Consider `CN1CCN(C(=O)[C@@H]2[C@@H](CO)[C@@H]3Cn4c(cccc4=O)[C@H]2N3S(=O)(=O)c2ccccc2F)CC1`, for which the relative growth is inactive: 1.01.

For the compound `Cc1ccc(-c2cccc(C(=O)N[C@H]3CC[C@@H](N)CC3)c2)o1`, the relative growth was inactive: 0.976.

On to `CC(=O)C1(O)CCC2C3CCC4=CC(=O)CCC4(C)C3CCC21C` (configuration not stated), for which the relative growth is inactive: 1.03.

Turning to `CC(=O)N[C@H]1C/C=C/C[C@@H](CC(=O)NCc2ccc(Cl)cc2)C(=O)NC[C@@H](c2ccccc2)OC1=O`, the relative growth was inactive: 0.986.

Turning to `Cc1ccccc1CCCCN`, the relative growth was inactive: 1.02.

Take `O=C(C[C@H]1C[C@H]2c3cc(NC(=O)Nc4ccc(C(F)(F)F)cc4)ccc3O[C@H]2[C@@H](CO)O1)NCCc1ccccc1`: the relative growth was inactive: 0.951.

On to `Cc1noc(C)c1NC(=O)Nc1ccc2c(c1)C(=O)N([C@@H](C)CO)C[C@@H](C)[C@H](CN(C)Cc1ccc(C(=O)O)cc1)OCCCC[C@@H](C)O2`, for which the relative growth was inactive: 1.01.

On to `C[C@H]1CCCCO[C@H](CN(C)C(=O)CCC(F)(F)F)[C@@H](C)CN([C@@H](C)CO)C(=O)c2cc(NC(=O)CCC(F)(F)F)ccc2O1`, for which the relative growth is inactive: 0.975.

`CO[C@@H]1CN(C)C(=O)c2ccc(NS(=O)(=O)c3cn(C)cn3)cc2OC[C@H](C)N(Cc2cccc(F)c2)C[C@H]1C`: the relative growth was inactive: 1.02.

As for `C[C@@H]1CN([C@H](C)CO)C(=O)c2cc(NC(=O)Nc3cccc4ccccc34)ccc2O[C@@H]1CN(C)Cc1ccc(C(F)(F)F)cc1`, the relative growth is inactive: 1.02.

As to `COc1ccc(NC(=O)N(C)C[C@H]2OCCCC[C@@H](C)Oc3ccc(NC(=O)c4ccncc4)cc3C(=O)N([C@H](C)CO)C[C@H]2C)cc1`, the relative growth is inactive: 0.984.

Consider `C[C@@H]1CN([C@@H](C)CO)C(=O)c2cc(NS(=O)(=O)c3cccs3)ccc2O[C@H]1CN(C)S(C)(=O)=O`, for which the relative growth is inactive: 0.987.

With `CN1C(=O)c2cc(NC(=O)c3cccs3)ccc2OC[C@@H]2O[C@@H](CC(=O)NCCN3CCCCC3)CC[C@H]21`, the relative growth is inactive: 1.02.

With `CC(C)NC(=O)Nc1ccc2c(c1)C(=O)N([C@@H](C)CO)C[C@@H](C)[C@H](CN(C)Cc1ccc(C(F)(F)F)cc1)OCCCC[C@@H](C)O2`, the relative growth is inactive: 1.02.

For the compound `C[C@@H]1CN([C@@H](C)CO)C(=O)c2cc(C#CC3(O)CCCC3)cnc2O[C@@H]1CN(C)C(=O)Cc1ccccc1`, the relative growth is inactive: 0.998.

In the case of `Cc1noc(C)c1S(=O)(=O)Nc1ccc2c(c1)CC(=O)N([C@H](C)CO)C[C@@H](C)[C@@H](CN(C)S(=O)(=O)c1cccs1)O2`, the relative growth was inactive: 0.988.

`CCCN(C)C[C@@H]1OCCCC[C@@H](C)Oc2ccc(NS(=O)(=O)c3cn(C)cn3)cc2C(=O)N([C@H](C)CO)C[C@@H]1C`: the relative growth is inactive: 0.984.

On to `C[C@@H]1CCCCO[C@H](CN(C)C(=O)Cc2ccccc2)[C@H](C)CN([C@H](C)CO)C(=O)c2cc(NC(=O)Nc3ccc(F)cc3)ccc2O1`, for which the relative growth was inactive: 1.02.

In the case of `COc1ccccc1-c1cc(=O)c2c(OC)cccc2o1`, the relative growth is inactive: 0.774.

On to `C[C@@H]1CN([C@H](C)CO)C(=O)CCCn2cc(nn2)CO[C@@H]1CN(C)S(=O)(=O)c1ccccc1C#N`, for which the relative growth was inactive: 1.

Consider `CNC[C@@H]1OCCCC[C@H](C)Oc2ccc(NS(=O)(=O)c3cn(C)cn3)cc2C(=O)N([C@H](C)CO)C[C@@H]1C`, for which the relative growth was inactive: 0.959.

Take `CC=Cc1ccc2n(c1=O)C[C@@H]1[C@@H](CO)[C@H](C(=O)NCC3CC3)[C@H]2N1S(=O)(=O)c1cn(C)cn1`: the relative growth was inactive: 0.974.

Turning to `C[C@@H]1CN([C@@H](C)CO)C(=O)c2cc(NC(=O)c3ccncc3)ccc2O[C@@H]1CN(C)S(=O)(=O)c1cn(C)cn1`, the relative growth was inactive: 1.01.

With `Cc1noc(C)c1NC(=O)Nc1ccc2c(c1)C(=O)N([C@H](C)CO)C[C@H](C)[C@@H](CN(C)C(=O)C1CCCCC1)OCCCC[C@@H](C)O2`, the relative growth is inactive: 1.02.

Turning to `C[C@]12C=CC(=O)C=C1CC[C@@H]1[C@@H]2[C@@H](O)C[C@@]2(C)[C@H]1CC[C@]2(O)C(=O)COC(=O)c1ccc(CO[N+](=O)[O-])cc1`, the relative growth was inactive: 0.952.

Consider `C[C@@H]1CN([C@H](C)CO)C(=O)c2cc(NC(=O)CCC(F)(F)F)ccc2O[C@@H]1CN(C)Cc1ccc(Oc2ccccc2)cc1`, for which the relative growth was inactive: 0.999.

With `CO[C@H]1CN(C)C(=O)c2cc(NC(=O)C3CC3)ccc2OC[C@@H](C)N(C(=O)C2CCOCC2)C[C@@H]1C`, the relative growth is inactive: 1.02.

As for `Cc1ccc(C(=O)Nc2ccc(S(=O)(=O)[O-])c3cc(S(=O)(=O)[O-])cc(S(=O)(=O)[O-])c23)cc1NC(=O)c1cccc(NC(=O)Nc2cccc(C(=O)Nc3cc(C(=O)Nc4ccc(S(=O)(=O)[O-])c5cc(S(=O)(=O)[O-])cc(S(=O)(=O)[O-])c45)ccc3C)c2)c1.[Na+].[Na+].[Na+].[Na+].[Na+].[Na+]`, the relative growth is inactive: 0.992.

`C[C@H]1CCCCO[C@@H](CN(C)C(=O)C2CCCCC2)[C@@H](C)CN([C@@H](C)CO)C(=O)c2cc(NC(=O)CCC(F)(F)F)ccc2O1`: the relative growth is inactive: 0.965.

Turning to `CCCN(C)C[C@@H]1OCCCC[C@@H](C)Oc2ccc(NC(=O)Nc3ccccc3)cc2C(=O)N([C@H](C)CO)C[C@@H]1C`, the relative growth was inactive: 1.01.

Regarding `COc1ccc(S(=O)(=O)Nc2ccc3c(c2)C(=O)N([C@@H](C)CO)C[C@H](C)[C@H](CN(C)Cc2ccc(Cl)c(Cl)c2)O3)cc1`, the relative growth was inactive: 1.02.

As for `C[C@H]1CN([C@@H](C)CO)S(=O)(=O)c2ccc(Br)cc2O[C@@H]1CN(C)C(=O)C1CCCCC1`, the relative growth is inactive: 1.

Consider `O.O=C(O)C1C(O)CCC2CN3CCc4c([nH]c5ccccc45)C3CC21` (configuration not stated), for which the relative growth was inactive: 0.889.

As for `CC(=O)N(CC(O)CO)c1c(I)c(C(=O)NCCO)c(I)c(C(=O)NCC(O)CO)c1I` (configuration not stated), the relative growth was inactive: 1.01.

For the compound `COc1ccc(S(=O)(=O)N(C)C[C@H]2OCCCC[C@H](C)Oc3ccc(NC(=O)CCC(F)(F)F)cc3C(=O)N([C@@H](C)CO)C[C@H]2C)cc1`, the relative growth is inactive: 1.
